For four molecules, binding results are on record in publication PMC10163088.

Protein sequences, listed by entry. Tags and fused reporters are not part of them.
UniProt P16649: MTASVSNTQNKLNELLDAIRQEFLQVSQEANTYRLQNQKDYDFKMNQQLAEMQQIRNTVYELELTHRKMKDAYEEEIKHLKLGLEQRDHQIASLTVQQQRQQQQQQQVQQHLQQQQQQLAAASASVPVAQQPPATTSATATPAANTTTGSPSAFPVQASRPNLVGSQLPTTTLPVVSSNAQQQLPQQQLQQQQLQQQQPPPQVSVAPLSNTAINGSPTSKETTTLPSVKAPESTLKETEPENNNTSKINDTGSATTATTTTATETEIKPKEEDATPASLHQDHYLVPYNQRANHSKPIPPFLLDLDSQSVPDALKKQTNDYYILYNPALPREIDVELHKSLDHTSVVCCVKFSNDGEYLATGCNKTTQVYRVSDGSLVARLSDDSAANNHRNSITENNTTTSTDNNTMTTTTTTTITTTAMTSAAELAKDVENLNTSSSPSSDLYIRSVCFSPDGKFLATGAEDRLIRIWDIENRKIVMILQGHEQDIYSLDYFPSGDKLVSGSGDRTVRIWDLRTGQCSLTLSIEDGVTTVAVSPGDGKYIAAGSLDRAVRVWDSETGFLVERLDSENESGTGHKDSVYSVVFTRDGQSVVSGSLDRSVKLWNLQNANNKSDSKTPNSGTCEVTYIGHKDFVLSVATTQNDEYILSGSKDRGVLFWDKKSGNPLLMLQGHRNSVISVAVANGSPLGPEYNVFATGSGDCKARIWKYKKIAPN

Results are given in words; binding and its absence hold for the method and conditions named. Binding seen in cells or lysates may run through a third protein. Some results given as binding are weak or reduced against the parent protein; the word gives no strength. Sequences can lack the tags named with a protein.

For experiment [1], the target named is T1, GST-Rox1 length variant aa 124-200 (S. cerevisiae).
T1 sequence: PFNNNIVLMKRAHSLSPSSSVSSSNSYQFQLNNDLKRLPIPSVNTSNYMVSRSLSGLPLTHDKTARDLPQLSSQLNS
Description: pull-down; GST fusions of repressor length variants used for binding studies with epitope-tagged corepressors (Supporting Online Fig. 1; its legend was not shown, source of the extracts and Sin3 construct not stated); only the target purified.

Experiment [2] deals with T2, GST-Yox1 length variant aa 220-280 (S. cerevisiae) (UniProt P34161).
T2 sequence: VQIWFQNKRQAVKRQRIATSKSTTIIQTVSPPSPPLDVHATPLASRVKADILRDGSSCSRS
Description: pull-down; GST fusions of repressors (full-length or length variants) immobilised on GSH sepharose, incubated with bacterial total protein extracts containing HA-tagged Sin3, Cyc8 or Tup1 (or Tup1 length variants); elution with free GSH, anti-HA blot (Figs. 1, 3, 4, 5); only the target purified.

Experiment [3] addresses T3, GST-Dal80 length variant aa 151-200 (S. cerevisiae).
T3 sequence: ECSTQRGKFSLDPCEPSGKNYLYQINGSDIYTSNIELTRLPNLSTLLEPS
Described as above.

Experiment [4] deals with T4, GST-Ure2 length variant aa 201-354 (S. cerevisiae) (UniProt P23202).
T4 sequence: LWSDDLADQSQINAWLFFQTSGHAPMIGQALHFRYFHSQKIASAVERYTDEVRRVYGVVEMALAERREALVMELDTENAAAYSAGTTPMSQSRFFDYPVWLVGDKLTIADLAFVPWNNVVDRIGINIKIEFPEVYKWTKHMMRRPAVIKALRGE
The description is as above.

In experiment [5] the target is T5, GST-Whi5 (full-length) (S. cerevisiae) (UniProt Q12416).
T5 sequence: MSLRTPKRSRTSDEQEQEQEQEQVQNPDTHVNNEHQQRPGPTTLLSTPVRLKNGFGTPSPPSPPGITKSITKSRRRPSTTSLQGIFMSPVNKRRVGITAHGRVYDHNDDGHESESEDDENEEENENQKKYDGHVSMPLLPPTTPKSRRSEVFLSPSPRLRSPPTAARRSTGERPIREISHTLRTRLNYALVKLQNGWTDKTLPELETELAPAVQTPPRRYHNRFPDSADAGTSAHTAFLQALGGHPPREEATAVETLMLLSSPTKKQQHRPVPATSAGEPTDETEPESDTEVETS
Description: pull-down; GST fusions of full-length repressors immobilised on GSH sepharose, incubated with protein extracts from yeast transformants containing epitope-tagged Sin3 length variants; anti-HA blot (Fig. 2); only the target purified.

Experiment [6] has as its target T6, GST-Fkh1 (full-length) (S. cerevisiae) (UniProt P40466).
T6 sequence: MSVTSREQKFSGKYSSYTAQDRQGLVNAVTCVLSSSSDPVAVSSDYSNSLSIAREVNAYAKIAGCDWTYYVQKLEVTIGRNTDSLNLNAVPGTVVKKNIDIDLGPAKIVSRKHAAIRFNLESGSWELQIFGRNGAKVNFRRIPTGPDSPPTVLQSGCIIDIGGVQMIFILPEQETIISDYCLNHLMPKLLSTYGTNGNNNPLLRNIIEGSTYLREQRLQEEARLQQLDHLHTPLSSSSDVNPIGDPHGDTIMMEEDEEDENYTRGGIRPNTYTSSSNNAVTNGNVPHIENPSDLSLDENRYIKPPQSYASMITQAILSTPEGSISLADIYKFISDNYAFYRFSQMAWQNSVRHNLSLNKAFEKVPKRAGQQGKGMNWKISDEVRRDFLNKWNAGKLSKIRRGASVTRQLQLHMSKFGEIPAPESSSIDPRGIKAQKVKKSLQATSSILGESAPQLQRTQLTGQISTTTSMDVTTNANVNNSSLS
Described as above.

Experiment [7] has as its target T7, GST-Yox1 (full-length) (S. cerevisiae) (UniProt P34161).
T7 sequence: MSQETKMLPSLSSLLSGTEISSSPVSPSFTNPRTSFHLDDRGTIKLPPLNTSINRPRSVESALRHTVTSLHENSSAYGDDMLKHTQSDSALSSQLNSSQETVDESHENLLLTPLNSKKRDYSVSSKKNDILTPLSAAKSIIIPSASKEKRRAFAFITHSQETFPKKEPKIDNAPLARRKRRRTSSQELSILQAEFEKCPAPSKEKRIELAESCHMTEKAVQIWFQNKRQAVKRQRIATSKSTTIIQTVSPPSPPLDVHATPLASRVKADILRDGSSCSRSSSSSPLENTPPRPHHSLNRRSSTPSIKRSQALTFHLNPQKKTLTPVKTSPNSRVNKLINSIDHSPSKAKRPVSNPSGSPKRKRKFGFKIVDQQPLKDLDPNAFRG
Described as above.

As for “HA3-Tup1 (full-length; pFK76) (from UniProt P16649 1-713)”, the binding entry is given as “binds” in experiment [1], “binds” in experiment [2], “binds” in experiment [3] and “no binding” in experiment [4].
“epitope-tagged Sin3 length variant 301-600 (PAH2; pYJ91) (from UniProt P22579 301-600) (domain or fragment)”: the binding entry in experiment [5], in experiment [6] and in experiment [7] was “binds” throughout.

B1: epitope-tagged Sin3 length variant 1-300 (PAH1; pCW83) (domain or fragment, UniProt P22579 1-300)
chain: MSQVWHNSNSQSNDVATSNDATGSNERNEKEPSLQGNKPGFVQQQQRITLPSLSALSTKEEDRRDSNGQQALTSHAAHILGYPPPHSNAMPSIATDSALKQPHEYHPRPKSSSSSPSINASLMNAGPAPLPTVGAASFSLSRFDNPLPIKAPVHTEEPKSYNGLQEEEKATQRPQDCKEVPAGVQPADAPDPSSNHADANDDNNNNENSHDEDADYRPLNVKDALSYLEQVKFQFSSRPDIYNLFLDIMKDFKSQAIDTPGVIERVSTLFRGYPILIQGFNTFLPQGYRIECSSNPDDPI
For the molecule B1, the binding entry in experiment [5], in experiment [6] and in experiment [7] was “binds” in each case.

B2: HA3-Cyc8 (aa 1-398 with 10 TPR motifs; pFK77) (domain or fragment, UniProt P14922 1-398)
chain: MNPGGEQTIMEQPAQQQQQQQQQQQQQQQQAAVPQQPLDPLTQSTAETWLSIASLAETLGDGDRAAMAYDATLQFNPSSAKALTSLAHLYRSRDMFQRAAELYERALLVNPELSDVWATLGHCYLMLDDLQRAYNAYQQALYHLSNPNVPKLWHGIGILYDRYGSLDYAEEAFAKVLELDPHFEKANEIYFRLGIIYKHQGKWSQALECFRYILPQPPAPLQEWDIWFQLGSVLESMGEWQGAKEAYEHVLAQNQHHAKVLQQLGCLYGMSNVQFYDPQKALDYLLKSLEADPSDATTWYHLGRVHMIRTDYTAAYDAFQQAVNRDSRNPIFWCSIGVLYYQISQYRDALDAYTRAIRLNPYISEVWYDLGTLYETCNNQLSDALDAYKQAARLDVNN
As for B2, the binding entry in experiment [1] is on record as “binds”; in experiment [2], “binds”; in experiment [3] it was “binds”; in experiment [4], “no binding”.
